Source: the supplement of paper PMC3334620
Whole data set: some 33,000 sequences, median “E-score (-0.5 to 0.5)” near -0.012, cut for the highest 2% near 0.29. This is one part of the list.

target: T1, Ybr033w (UniProt P38073); assay: PBM E-score (8-mer binding enrichment) (E-score (-0.5 to 0.5)); higher = stronger / more preferred TF binding; most listed sequences are background and not binding sites; conditions: protein concentration: 200 nM; construct: GST-full length
T1 sequence: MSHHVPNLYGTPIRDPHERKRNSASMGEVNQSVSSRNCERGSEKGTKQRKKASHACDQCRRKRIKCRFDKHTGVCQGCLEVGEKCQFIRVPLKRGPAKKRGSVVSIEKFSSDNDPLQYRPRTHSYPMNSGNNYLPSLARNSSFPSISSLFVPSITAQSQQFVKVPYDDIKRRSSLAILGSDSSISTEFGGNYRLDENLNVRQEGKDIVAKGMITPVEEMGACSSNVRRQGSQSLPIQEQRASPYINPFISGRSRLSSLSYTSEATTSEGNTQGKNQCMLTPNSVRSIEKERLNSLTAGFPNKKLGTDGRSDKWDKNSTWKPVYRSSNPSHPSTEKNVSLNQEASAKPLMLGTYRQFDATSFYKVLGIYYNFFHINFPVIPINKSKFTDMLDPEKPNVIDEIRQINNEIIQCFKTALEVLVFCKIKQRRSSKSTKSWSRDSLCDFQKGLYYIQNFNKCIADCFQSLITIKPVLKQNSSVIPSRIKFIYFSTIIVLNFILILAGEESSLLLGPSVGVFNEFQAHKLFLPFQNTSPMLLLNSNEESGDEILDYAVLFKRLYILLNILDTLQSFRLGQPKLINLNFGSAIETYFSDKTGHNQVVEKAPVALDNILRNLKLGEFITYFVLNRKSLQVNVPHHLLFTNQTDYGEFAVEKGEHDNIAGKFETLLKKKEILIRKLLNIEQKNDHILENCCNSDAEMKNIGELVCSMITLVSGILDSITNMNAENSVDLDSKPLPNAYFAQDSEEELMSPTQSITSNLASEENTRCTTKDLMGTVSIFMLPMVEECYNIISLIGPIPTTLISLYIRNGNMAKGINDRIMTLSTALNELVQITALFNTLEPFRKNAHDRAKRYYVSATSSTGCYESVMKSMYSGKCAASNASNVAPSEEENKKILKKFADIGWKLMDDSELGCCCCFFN
In short: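 E-scores (a modified Wilcoxon-Mann-Whitney statistic) were assigned by the Universal PBM Analysis Suite to every ungapped eight-base word pooled with its reverse complement. The input came from universal all-10-mer Agilent arrays made double-stranded by primer extension and probed with GST-tagged yeast transcription factors at about 100-200 nM. Fluorescent anti-GST detected bound protein, and masliner normalised the scans.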

Sequence	PBM E-score
AGCTGGTA	-0.142
CTCAGTCA	-0.111
GACACGCC	-0.0989
ACATCGAT	0.122
ATTAGAGC	0.16
TACTCAGA	0.0332
ACTAAGGA	-0.0971
ATTTCCTA	0.101
TCAGCAAA	0.126
ATCCGTCA	0.105
AAGTTTCT	0.133
ACGGGCGG	-0.259
GAGAGCGC	-0.203
CGCGACCG	-0.117
ACGCCTAT	-0.107
TCGACTCA	0.168
CAAGCCGG	0.0828
AAGCTTTC	0.188
CTAGCAGC	-0.0711
CACTGTTC	-0.00287
TAAGTTCA	0.0804
GCGAACGC	-0.131
CAGCTTGC	-0.186
GCAGTCTA	-0.0682
AGTTCGGG	0.0706

Sequence	PBM E-score
GCATCGTA	0.0304
CGCAGTAA	0.0633
GAAATTAC	0.255
GCAGCTAA	0.0624
ATCTGCAG	-0.0436
GGTTAGTA	0.125
AAAAGTAC	0.103
ACCCCTTG	-0.326
ACTAGTTC	-0.0183
CCAGATTA	0.18
ATGTTACA	0.225
ATATACAG	0.277
ATAGATGA	0.0723
ATCCTTAC	0.196
CAGAGCCA	0.00866
AGGCTTTA	-0.0897
CGGGCAAA	-0.102
ACACGGAA	0.121
AACCTACG	0.0746
CAATATGG	0.0471
CTCGACAA	0.022
GTTTTGGA	0.196
ACCCGTGG	-0.317
ATCGATAA	0.12
GTTGTTAA	0.267

Sequence	PBM E-score
GCTATAAA	0.138
CTTAGCAC	0.0352
TATGGAGA	-0.0459
CCTGAATC	0.108
AGGTACCT	-0.31
GAATGATC	0.188
CGTTCGTA	0.122
ACGTACCG	0.0138
CGTAAGAG	-0.141
ACCATACA	0.00754
GCTAAGAA	-0.0778
AGCATCGG	-0.0752
CGTTAGCA	0.0776
GGTTTCCA	-0.241
GACGAAAA	0.25
CTTAGCCC	-0.207
AGGATCTG	-0.161
AGCCGGCT	0.0153
ACTGCTAC	0.0898
AGTTAGTA	0.137
AAGTTTAT	0.333
AGGTGCAC	0.00149
GCATAGCA	0.0192
GACCTTGC	-0.24
AGATCATA	0.183

Sequence	PBM E-score
CCGCAAGA	0.0615
ACAGAAAA	0.144
AAACTCCT	0.0225
AATATAGA	0.266
CACCCATG	-0.168
AAAGGCAA	0.256
ATTCGCAA	0.157
CACTACTA	0.094
GGGGTCTA	-0.152
GTATCCCA	-0.109
ACCGTTAC	0.00116
CACTCTAA	0.0188
GGGAATTA	0.193
GACGCCTC	-0.105
CATTATAG	0.0672
GCAGTTAC	0.101
CGAATGAC	0.205
GTAAAGAA	0.224
CATTTAAG	-0.0522
AAGAAGGC	-0.0748
CGTAGCTC	-0.0764
TCGATTCA	0.104
CCTCATCA	-0.201
ATCTCTCG	-0.0856
GTTACAGA	0.0764

Sequence	PBM E-score
ATACGAAT	0.111
CCCACGCC	-0.294
CATTTGGC	0.0321
ACGCCTGA	0.0794
GTGACTTA	0.00446
AAGGTAAG	0.0175
TATGCGCA	-0.0585
ATGACTTC	0.0904
GACGGCAA	-0.0655
ACTTTCCT	-0.0799
CGCAAGCC	0.0476
TCATGGCA	-0.0755
CGTCGAGC	-0.0726
TAACCCAA	0.128
AGTAAGGA	0.215
CCCAATTC	0.164
CAATCGCG	0.0699
ACGCGACC	-0.208
GGCAGGGA	-0.0124
CAAAGCTG	0.0479
AACCGAGT	-0.106
AAGGTTAT	0.0971
AACTGTTA	0.243
CCTGCGTA	0.029
AGTAGTAC	0.252

Sequence	PBM E-score
CAATAAGC	0.0395
GGCATACC	-0.126
ATATGAGC	-0.0174
AGTGCGTG	-0.048
GCATCGCC	-0.17
ATGAGACA	0.0647
GACCGAAC	-0.0736
GGCAAAGA	-0.0677
AATGGTTC	0.187
GAGTGGCC	-0.258
ACACGTCG	-0.126
CGCGCTGA	-0.0754
AGCAGTCC	-0.182
GACATTCA	0.0222
TTACTGAA	0.075
GTACACGA	0.107
CCGTATGA	0.0121
ATAGATAC	0.185
CAAAAGGG	0.0226
TCTGCTCA	-0.113
GAAAAGAC	0.126
CGCCTTAC	-0.16
GACAAATC	0.24
CTAAGACA	0.00154
AGGCCCTG	-0.323

Sequence	PBM E-score
CCGGTTTC	-0.094
GAAAAAAA	0.37
CATTCCCC	-0.00078
ACCATGTC	-0.0544
CGGTTTTA	0.164
CCTAAGCA	-0.0388
CTGCTATA	0.137
GCGTGACA	0.0643
GAAATGCA	0.141
GCGCTGCC	-0.318
CAATCGAG	-0.132
CCGAATTC	0.089
GACATGAC	-0.22
GGTAATTA	0.175
CGACGGCA	-0.247
ATCACGGG	-0.215
AAGCTCTA	-0.139
CGCTGGAA	-0.0114
GGAAGTAA	0.211
AGTTTTTG	0.254
GATTTACA	0.297
GCACCGAC	-0.0638
GAAGCTGA	0.135
CACTACGA	0.00415
GGATTAGA	0.0514

Sequence	PBM E-score
AGATAACG	0.215
GGCAGGAC	-0.204
GAACGACA	0.0254
GCCTCCCA	-0.213
ACGTTGCT	0.159
CACTGTAC	-0.141
CATAATGC	0.0431
CTAAACAG	-0.0126
CCCCGACG	-0.319
CGGTGACA	-0.00129
AACATGTG	0.246
CATAGCAC	0.0654
AACCCGCG	0.0347
CTAAAGAG	-0.0452
CTAGACGC	-0.0917
CGTTACCA	0.0589
CTTATTTC	0.235
ATTACTTA	0.35
CCGTACCA	0.145
GTCATAAC	-0.0815
AGGCCAGA	-0.0584
CCGGTTTA	-0.0643
CCACCGGG	-0.217
CATTTAAA	0.21
GAATCATA	0.147

Sequence	PBM E-score
AAAAGTGC	0.13
CATCACTA	0.197
GACCTGGC	-0.105
GGGATAGA	-0.196
GATGTGCC	-0.123
AACATGGA	0.0231
AAGAAGAC	-0.0526
GGACCGAC	-0.0748
CACAGTGG	0.0184
CCCGATCA	-0.25
AACCCACA	0.103
CAGAATTC	0.232
AGATAGCC	-0.342
CCCGACGC	-0.31
ATCTTCTG	0.125
CGCAGACC	-0.103
CGGCCCTC	-0.308
GGGATCAC	-0.311
AGTAACGG	0.066
